# The other results are listed elsewhere or left out.
# Assays:
# Experiment in all cases: glycan array binding signal (z-score within array); higher = stronger binding
# Conditions in all cases: glycan notation: IUPAC condensed, linker removed
# Gal6S(b1-4)Glc6S = biological target: Gal6S(b1-4)Glc6S
# Outline: (§1)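 The Consortium for Functional Glycomics database supplied 3228 glycan arrays, of which those lacking an available protein sequence were dropped. The binding signal, a within-array Z-score, was averaged across arrays of the same protein sequence and across linkers. Negative scores can be read as non-binding.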
# Gal6S(b1-4)GlcNAc = biological target: Gal6S(b1-4)GlcNAc
# Outline: as §1
# Gal6S(b1-4)GlcNAc6S = biological target: Gal6S(b1-4)GlcNAc6S
# Outline: as §1
# GalNAc(a1-3)Gal = biological target: GalNAc(a1-3)Gal
# Outline: as §1
# GalNAc(a1-3)GalNAc = biological target: GalNAc(a1-3)GalNAc
# Outline: as §1
# [1] = biological target: GalNAc(a1-3)GalNAc(a1-3)Gal(a1-4)Gal(b1-4)GlcNAc
# Outline: as §1
# [2] = biological target: GalNAc(a1-3)GalNAc(b1-3)Gal(a1-4)Gal(b1-4)Glc
# Outline: as §1
# GalNAc(b1-3)Gal = biological target: GalNAc(b1-3)Gal
# Outline: as §1
# [3] = biological target: GalNAc(b1-3)Gal(a1-4)Gal(b1-4)GlcNAc
# Outline: as §1
# [4] = biological target: GalNAc(b1-3)Gal(a1-4)Gal(b1-4)GlcNAc(b1-3)Gal(b1-4)Glc
# Outline: as §1
# [5] = biological target: GalNAc(b1-3)Gal(a1-6)Gal(b1-4)Glc
# Outline: as §1
# GalNAc(b1-3)GalNAc = biological target: GalNAc(b1-3)GalNAc
# Outline: as §1
# GalNAc(b1-3)GlcNAc = biological target: GalNAc(b1-3)GlcNAc
# Outline: as §1
# GalNAc(b1-4)Gal(b1-4)Glc = biological target: GalNAc(b1-4)Gal(b1-4)Glc
# Outline: as §1
# GalNAc(b1-4)GlcNAc = biological target: GalNAc(b1-4)GlcNAc
# Outline: as §1
# [6] = biological target: GalNAc(b1-4)GlcNAc(b1-2)Man
# Outline: as §1
# [7] = biological target: GalNAc(b1-4)GlcNAc(b1-2)Man(a1-3)[GalNAc(b1-4)GlcNAc(b1-2)Man(a1-6)]Man(b1-4)GlcNAc(b1-4)GlcNAc
# Outline: as §1
# [8] = biological target: GalNAc(b1-4)GlcNAc(b1-3)GalNAc(b1-4)GlcNAc
# Outline: as §1
# GalNAc(b1-4)GlcNAc6S = biological target: GalNAc(b1-4)GlcNAc6S
# Outline: as §1
# GalNAc(b1-6)GalNAc = biological target: GalNAc(b1-6)GalNAc
# Outline: as §1
# GalNAc3S(b1-4)GlcNAc = biological target: GalNAc3S(b1-4)GlcNAc
# Outline: as §1
# GalNAc3S(b1-4)GlcNAc3S = biological target: GalNAc3S(b1-4)GlcNAc3S
# Outline: as §1
# [9] = biological target: GalNAc3S(b1-4)[Fuc(a1-3)]GlcNAc
# Outline: as §1
# GalNAc4S6S(b1-4)GlcNAc = biological target: GalNAc4S6S(b1-4)GlcNAc
# Outline: as §1
# GalNAc6S(b1-4)GlcNAc = biological target: GalNAc6S(b1-4)GlcNAc
# Outline: as §1
# Glc(a1-4)Glc = biological target: Glc(a1-4)Glc
# Outline: as §1
# [10] = biological target: Glc(a1-4)Glc(a1-4)Glc(a1-4)Glc
# Outline: as §1
# Glc(a1-6)Glc(a1-6)Glc = biological target: Glc(a1-6)Glc(a1-6)Glc
# Outline: as §1
# [11] = biological target: Glc(a1-6)Glc(a1-6)Glc(a1-6)Glc
# Outline: as §1
# Glc(b1-4)Glc = biological target: Glc(b1-4)Glc
# Outline: as §1
# Glc(b1-6)Glc = biological target: Glc(b1-6)Glc
# Outline: as §1
# GlcA(b1-3)Gal = biological target: GlcA(b1-3)Gal
# Outline: as §1
# GlcA(b1-3)GlcNAc = biological target: GlcA(b1-3)GlcNAc
# Outline: as §1
# GlcA(b1-6)Gal = biological target: GlcA(b1-6)Gal
# Outline: as §1
# [12] = biological target: GlcA3S(b1-3)Gal(b1-4)GlcNAc(b1-2)Man
# Outline: as §1
# [13] = biological target: GlcA3S(b1-3)Gal(b1-4)GlcNAc(b1-3)Gal(b1-4)Glc
# Outline: as §1
# [14] = biological target: GlcNAc(a1-3)Gal(b1-4)GlcNAc
# Outline: as §1
# [15] = biological target: GlcNAc(a1-4)Gal(b1-3)GlcNAc
# Outline: as §1
# [16] = biological target: GlcNAc(a1-4)Gal(b1-4)GalNAc
# Outline: as §1
# [17] = biological target: GlcNAc(a1-4)Gal(b1-4)GlcNAc
# Outline: as §1
# [18] = biological target: GlcNAc(a1-4)Gal(b1-4)GlcNAc(b1-3)Gal(b1-4)Glc
# Outline: as §1
# [19] = biological target: GlcNAc(a1-4)Gal(b1-4)GlcNAc(b1-3)Gal(b1-4)GlcNAc
# Outline: as §1
# [20] = biological target: GlcNAc(a1-4)Gal(b1-4)GlcNAc(b1-3)Gal(b1-4)GlcNAc(b1-3)Gal(b1-4)GlcNAc
# Outline: as §1
# [21] = biological target: GlcNAc(a1-4)Gal(b1-4)GlcNAc(b1-3)Gal(b1-4)[Fuc(a1-3)]GlcNAc(b1-3)Gal(b1-4)[Fuc(a1-3)]GlcNAc
# Outline: as §1
# [22] = biological target: GlcNAc(a1-6)Gal(b1-4)GlcNAc
# Outline: as §1
binder,measurement,setting,value
"CBM13 2a (Mycobacterium tuberculosum), P64849 (protein) DGPVQLKSRLGDVCLDAPSGSWFSPLVINPCNGTDFQRWNLTDDRQVESVAFPGECVNIGNALWARLQPCVNWISQHWTVQPDGLVKSDLDACLTVLGGPDPGTWVSTRWCDPNAPDQQWDSVPLEHHHHHH",glycan array binding signal (z-score),Gal6S(b1-4)Glc6S,-0.116
same,glycan array binding signal (z-score),Gal6S(b1-4)GlcNAc,-0.173
same,glycan array binding signal (z-score),Gal6S(b1-4)GlcNAc6S,-0.288
same,glycan array binding signal (z-score),GalNAc(a1-3)Gal,-0.304
same,glycan array binding signal (z-score),GalNAc(a1-3)GalNAc,-0.31
same,glycan array binding signal (z-score),[1],-0.375
same,glycan array binding signal (z-score),[2],-0.269
same,glycan array binding signal (z-score),GalNAc(b1-3)Gal,-0.289
same,glycan array binding signal (z-score),[3],-0.272
same,glycan array binding signal (z-score),[4],-0.325
same,glycan array binding signal (z-score),[5],-0.149
same,glycan array binding signal (z-score),GalNAc(b1-3)GalNAc,-0.167
same,glycan array binding signal (z-score),GalNAc(b1-3)GlcNAc,-0.328
same,glycan array binding signal (z-score),GalNAc(b1-4)Gal(b1-4)Glc,-0.069
same,glycan array binding signal (z-score),GalNAc(b1-4)GlcNAc,-0.323
same,glycan array binding signal (z-score),[6],-0.419
same,glycan array binding signal (z-score),[7],0.805
same,glycan array binding signal (z-score),[8],-0.341
same,glycan array binding signal (z-score),GalNAc(b1-4)GlcNAc6S,-0.357
same,glycan array binding signal (z-score),GalNAc(b1-6)GalNAc,-0.3
same,glycan array binding signal (z-score),GalNAc3S(b1-4)GlcNAc,-0.336
same,glycan array binding signal (z-score),GalNAc3S(b1-4)GlcNAc3S,-0.049
same,glycan array binding signal (z-score),[9],-0.251
same,glycan array binding signal (z-score),GalNAc4S6S(b1-4)GlcNAc,-0.081
same,glycan array binding signal (z-score),GalNAc6S(b1-4)GlcNAc,-0.099
same,glycan array binding signal (z-score),Glc(a1-4)Glc,-0.098
same,glycan array binding signal (z-score),[10],-0.131
same,glycan array binding signal (z-score),Glc(a1-6)Glc(a1-6)Glc,-0.174
same,glycan array binding signal (z-score),[11],0.041
same,glycan array binding signal (z-score),Glc(b1-4)Glc,-0.021
same,glycan array binding signal (z-score),Glc(b1-6)Glc,-0.057
same,glycan array binding signal (z-score),GlcA(b1-3)Gal,-0.204
same,glycan array binding signal (z-score),GlcA(b1-3)GlcNAc,-0.329
same,glycan array binding signal (z-score),GlcA(b1-6)Gal,0
same,glycan array binding signal (z-score),[12],-0.242
same,glycan array binding signal (z-score),[13],-0.122
same,glycan array binding signal (z-score),[14],-0.365
same,glycan array binding signal (z-score),[15],-0.306
same,glycan array binding signal (z-score),[16],-0.227
same,glycan array binding signal (z-score),[17],-0.181
same,glycan array binding signal (z-score),[18],-0.311
same,glycan array binding signal (z-score),[19],-0.295
same,glycan array binding signal (z-score),[20],-0.179
same,glycan array binding signal (z-score),[21],0.043
same,glycan array binding signal (z-score),[22],-0.319

# From the supplement of paper PMC8728848
